We go through 88 compounds from PubChem BioAssay AID463173 (ICCB-Longwood Screening Facility, Harvard Medical School, 2010).

The campaign covered roughly 52,000 compounds. About 4,300 (8.3%) were called active. Rule as the data show it: active = survival mostly below about 52% (no sharp cut-off); inactive = mostly above about 56%. The list shows a part of the results.

The assay has as its system DeltatarO mutant. Kind of assay: growth inhibition of S. aureus wild type versus tarO mutant, primary screen, teichoic acid synthesis inhibitors, RN4220, OD600 (AID 463173). Conditions: OD600, 18 h, hits give low values, screened at 18.75 µg/mL (by protocol).
Regarding `COc1cc(OC)c(NC(=O)c2ccc3c(c2)N(Cc2ccc(C)cc2)CCS3)cc1Cl`, the survival was inactive: 91%. Turning to `Cc1cccc(C2N=C(N)Nc3nc4ccccc4n32)c1` (stereo not drawn), the survival is inactive: 133%. Under `COc1cc2[nH]c(=O)c(C(=O)NCCN3CCCC3)c(O)c2cc1OC` stands inactive: 85%. Under `CCN(CC)S(=O)(=O)c1ccc2c(c1)c(=O)c(C(=O)N1CCN(c3cccc(Cl)c3)CC1)cn2C` stands inactive: 85%; under `CCc1ccc(C(=O)c2cn(CC(=O)Nc3ccc4c(c3)OCO4)c3ccc(F)cc3c2=O)cc1`, inactive: 75%. Under `CCOc1ccccc1CNC(=O)C1CCN(c2nc3ccccc3nc2C(F)(F)F)CC1` stands inactive: 69%; under `COc1ccc(-c2n[nH]c3c2cnc2cc(OC)c(OC)cc23)cc1`, inactive: 76%; under `Fc1ccc(-c2nn(-c3ccc(Cl)cc3)c3c2cnc2ccc(F)cc23)cc1`, inactive: 73%.

As for `CCC(C(=O)NCCc1cc(OC)ccc1OC)n1nc(C)c2c(C)n(-c3ccccc3)nc2c1=O` (stereo not drawn), the survival is inactive: 98%. Regarding `CCOc1ccccc1NC(=O)Cn1c(=O)n(Cc2cccs2)c(=O)c2cccnc21`, the survival was inactive: 60%. As to `CC(Sc1nc(=O)cc(N)n1CCc1ccccc1)C(=O)Nc1cccc(Cl)c1` (stereo not drawn), the survival is inactive: 64%. Under `Cc1ccc(OCCn2cc(C=C(C#N)C#N)c3ccccc32)cc1` stands inactive: 92%; under `O=C(Cn1c2[n+](c3ccccc31)CC(O)CS2)N1CCCCC1` (stereo not drawn), inactive: 72%; under `COc1ccc(-n2c(=O)c3ccccc3n(Cc3ccccc3Cl)c2=O)cc1`, inactive: 110%. Under `COc1ccc(C(=O)Nc2nc3n(n2)C(c2ccc(Cl)cc2)C=C(c2ccccc2)N3)cc1OC` (stereo not drawn) stands inactive: 59%; under `Cc1ccc(C)c(CN2C(=O)c3ccccc3S(=O)c3ccc(C(=O)N4CCOCC4)cc32)c1` (stereo not drawn), inactive: 79%; under `Cc1ccc(S(=O)(=O)c2nnn3c2nc(N2CCOCC2)c2sccc23)cc1C`, inactive: 35%.

In the case of `Cc1ccc(Nc2sc(C(=O)c3ccc(F)cc3)c(N)c2S(=O)(=O)c2ccc(C)cc2)cc1`, the survival is inactive: 116%.

Turning to `COc1ccccc1N1CCN(S(=O)(=O)c2c(C)sc3ncn(CC(=O)Nc4ccc(C)cc4Br)c(=O)c23)CC1`, the survival is inactive: 73%. Under `Cc1ccc(-n2ncc(C(=O)NC3CCN(Cc4ccccc4)CC3)c2C2CCN(C(=O)OC(C)(C)C)CC2)cc1C` stands inactive: 92%; under `O=C(Nc1ccc2nc(SCC(=O)N3CCCc4ccccc43)sc2c1)c1ccc(Cl)cc1`, inactive: 84%. With `CCCS(=O)(=O)Nc1cc(-c2cn3ccc(C)cc3n2)ccc1C`, the survival was inactive: 78%. Under `CCOc1ccccc1C(=O)Nc1ccc(S(=O)(=O)N(Cc2ccccc2)c2ccccc2)cc1` stands inactive: 113%. To `Cc1ccc(-n2cc(C(=O)OCc3ccc(F)c(F)c3)c3ccccc3c2=O)cc1` belongs inactive: 68%. To `CCCN1Cc2cccc(C(=O)Nc3ccccc3C(=O)OC)c2C1=O` belongs inactive: 127%. Regarding `CCOc1ccc(NC(=O)CN2CCN(CC(=O)Nc3ccc(F)cc3F)CC2)cc1`, the survival is inactive: 100%. On to `Cc1ccc(CNC(=O)C2CCCN(c3ncnc4onc(-c5ccc(F)cc5)c34)C2)cc1` (stereo not drawn), for which the survival is inactive: 85%.

As to `CC(C)(C)n1nnnc1C(c1cc2cc3c(cc2[nH]c1=O)OCO3)N(Cc1ccccc1)Cc1cccnc1` (stereo not drawn), the survival was inactive: 68%. To `O=C(Nc1ccccc1)c1ccc(F)cc1` belongs inactive: 76%. Under `CN1CC(=O)Nc2cc(C(=O)O)ccc21` stands inactive: 87%; under `COc1ccc(OC)c(NC(=O)Cn2c(=O)cc(C)c3c(C)nn(-c4cccc(Cl)c4C)c32)c1`, inactive: 84%. On to `O=C(CN1C(=O)CCSc2ccccc21)Nc1ccc(C(F)(F)F)cc1`, for which the survival is inactive: 111%. Under `CC1=C(C)CS(=NC(=O)c2ccccc2)N(C(=O)c2ccccc2)C1` (stereo not drawn) stands inactive: 79%. Under `CCCNC(=O)N1CCCN(S(=O)(=O)c2ccc3c(ccn3CC)c2)CC1` stands inactive: 79%. To `CCCCOc1cccc(C(=O)N2CCN(CCc3ccncc3)CC2)c1` belongs inactive: 55%; to `Cc1c(Cl)cccc1-c1ccc(/C=C(\C#N)c2nc3ccccc3[nH]2)o1`, active: 13%; to `CCN(CC)c1ccc(NS(=O)(=O)c2cc(-c3cc(C)no3)ccc2C)c(C)c1`, inactive: 122%.

As for `O=C(Nc1c[nH]c2cc(Cl)ccc2c1=O)N1CCCCC1`, the survival is inactive: 102%. To `COc1ccc(N2CCN(C(=O)c3cnn(-c4ccc(OC)cc4)c3C3CCN(C(=O)OC(C)(C)C)CC3)CC2)cc1` belongs inactive: 88%. To `COc1cc(C(=O)N2CCN(C(=O)COc3cccc(C)c3)CC2)cc(OC)c1OC` belongs inactive: 80%; to `Cc1cccc(C(=O)N(Cc2ccccc2F)C2CCS(=O)(=O)C2)c1` (stereo not drawn), inactive: 76%. As to `COc1ccc(Cc2nc3c4cnn(-c5cccc(F)c5)c4ncn3n2)cc1`, the survival is inactive: 84%. Under `COC(=O)c1c(NC(=O)COc2cccc(C(F)(F)F)c2)sc2c1CCCC2` stands inactive: 49%; under `N#CC1=C(N)c2ccccc2CC12CCCCC2`, active: 31%. In the case of `O=C(CSc1ccccn1)N1CCc2ccccc21`, the survival was inactive: 86%.

Turning to `O=C(COc1ccc(Cl)cc1Cl)Nc1cccc2cccnc12`, the survival was inactive: 79%.

`COC(=O)C1=C(C)NC(C)=C(C(=O)OC)C1c1cc2ccc(OC)cc2[nH]c1=O`: the survival is inactive: 101%. To `Cc1c(C(=O)OC2CCCCCC2)[nH]c2c1C(=O)CC(c1ccc(Cl)cc1)C2` (stereo not drawn) belongs inactive: 129%; to `Cc1ccc2c(c1)C(=O)OC(C(=O)Nc1ncc(Cc3ccc(Cl)cc3)s1)C2` (stereo not drawn), inactive: 87%. Consider `Cc1cccc(C)c1-n1ncc(C(=O)NC2CCCC2)c1C1CCN(C(=O)OC(C)(C)C)CC1`, for which the survival is inactive: 94%. Regarding `CCOc1ccc(NC(=O)NCc2cccn2Cc2ccccc2)cc1`, the survival was inactive: 72%. Under `O=C(c1ccc2c(c1)CCN2S(=O)(=O)c1ccc(Cl)cc1)N1CCN(c2ccc(F)cc2)CC1` stands inactive: 74%; under `C/C(=N\NC(=O)CNc1ccccc1)c1ccccc1`, inactive: 85%; under `CCOC(=O)CNC(=O)N1[C@H](c2cccs2)[C@@H](C)C(=O)[C@@H](C)[C@@H]1c1cccs1`, active: 55%. To `COc1cc(NC(=O)c2nc3nc(C)cc(C(F)F)n3n2)c(OC)cc1Cl` belongs inactive: 87%; to `CCOc1ccc(N2CC(NC(=O)C3CCCCC3)CC2=O)cc1` (stereo not drawn), inactive: 75%; to `Cc1ccc(CNC(=O)c2ccc(CN3CC(=O)N4CCCCC4C3=O)cc2)cc1` (stereo not drawn), inactive: 60%. Under `COc1ccc(Nc2c(-c3ccc(C)o3)nc3cc(C)ccn23)cc1` stands inactive: 75%; under `Cc1cc(C)cc(NC(=O)Cn2cc(C(=O)c3cccs3)c3ccccc32)c1`, inactive: 60%; under `Cc1ccc2oc(-c3ccc(C)c(NC(=O)/C=C/c4ccc(Cl)cc4)c3)nc2c1`, inactive: 90%. As to `Cc1ccc2[nH]c3c(=O)n(CC(=O)N(CCN(C)C)Cc4ccccc4)ncc3c2c1`, the survival was inactive: 97%. To `CC(=O)N1CCC(N(Cc2ccco2)C(=O)Nc2ccc(C)c(Cl)c2)CC1` belongs inactive: 128%; to `COc1ccc(OC)c(NC(=O)CSc2nnc(CNc3ccc(C)cc3C)n2CC2CCCO2)c1` (stereo not drawn), inactive: 100%.

As to `O=C(CCCCCn1c(=O)c2sccc2n(Cc2ccc(Cl)cc2)c1=O)NCc1ccc2c(c1)OCO2`, the survival was inactive: 64%. To `Cc1ccc(S(=O)(=O)N(CC(=O)NCCSc2ccc(Cl)cc2)c2ccccc2C)cc1` belongs inactive: 58%; to `COc1ccc(Cl)cc1C(=O)Nc1nnc2n1CCS2`, inactive: 75%; to `Cc1ccc(NC(=O)C2CCN(c3nnc(C)c4c(C)n(-c5ccccc5)nc34)CC2)c(Cl)c1`, inactive: 79%. To `CC(C)CCNC(=O)Cn1c(-c2cccs2)cc2cc(F)ccc21` belongs inactive: 94%; to `Cc1cc(Br)ccc1NC(=O)c1sc2nc3n(c(=O)c2c1C)CCCC3`, inactive: 74%; to `CCCCOc1ccc(Cn2c(=O)oc3ccc(C)cc32)cc1OC`, active: 36%. To `CCc1nnc(NC(=O)c2nc(SCc3ccccc3F)ncc2Cl)s1` belongs active: 31%; to `COc1ccc(S(=O)(=O)N2CCN(c3cccc(C)c3C)CC2)c2ccccc12`, inactive: 152%. On to `COc1ccc2c(c1)c(=O)c(C(=O)c1ccc(F)cc1)cn2CC(=O)Nc1ccc2c(c1)OCO2`, for which the survival was inactive: 94%. On to `S=C1NC2=C(CCCC2)C2(CCCCC2)N1`, for which the survival is inactive: 71%. Under `Cc1cccc(N2CCn3c2nc2c3c(=O)n(C/C=C/c3ccccc3)c(=O)n2C)c1` stands inactive: 75%. `CC(C)c1ccc(NC(=O)N2c3ccccc3Sc3ccccc32)cc1`: the survival was active: 6%. To `C=Cc1ccc(Cn2c(=O)n(-c3cccc(Cl)c3)c(=O)c3c4c(sc32)CN(C(C)=O)CC4)cc1` belongs inactive: 65%; to `COCCCNC(=O)CCn1c(=O)c2ccccc2n(CC(=O)Nc2cc(Cl)ccc2OC)c1=O`, inactive: 96%; to `CCN(Cc1ccccc1)Cc1c(O)ccc2oc(C)c(C(=O)Nc3ccc(C)cc3C)c12`, active: 33%. To `O=C(/C=C/c1ccccc1Cl)Nc1nc(-c2cccs2)ns1` belongs inactive: 68%. To `CC(Oc1ccccc1)C(=O)Nc1c[nH]c(=O)[nH]c1=O` (stereo not drawn) belongs inactive: 85%.

For the compound `COC1CCC(C(=O)Nc2nc(-c3ccc4c(c3)CCN4S(C)(=O)=O)cs2)CC1` (stereo not drawn), the survival was inactive: 90%. Consider `COc1ccc(NC(=O)N2CCN(S(=O)(=O)c3ccc4c(ccn4C)c3)CC2)c(OC)c1`, for which the survival is inactive: 95%. Under `COc1cccc(CNC(=O)C(C)n2c(=O)cc(-c3ccccc3)c3c(C)nn(C)c32)c1` (stereo not drawn) stands inactive: 84%; under `Cc1nc2ccn(Cc3ccco3)c(=O)c2cc1C(=O)N1CCN(c2ccc(F)cc2)CC1`, inactive: 135%; under `CCc1nnc(NC(=O)c2c(O)c3ccccc3n(C)c2=O)s1`, active: -1%. Under `CC(C)c1ccc(N2C(=O)CSC23C(=O)N(Cc2ccccc2)c2ccccc23)cc1` (stereo not drawn) stands inactive: 69%; under `Cc1ccc(NC(=O)Cn2c(=O)n(Cc3nc(C)no3)c(=O)c3cc4c(cc32)OCO4)cc1`, inactive: 91%.
